# Data reported in ChEMBL document CHEMBL4888484, “Replenishing the malaria drug discovery pipeline: Screening and hit evaluation of the MMV Hit Generation Library 1 (HGL1) against asexual blood stage Plasmodium falciparum ,using a nano luciferase reporter read-out” (2022).
# Out of some 150,000 compounds screened, about 540 (0.36%) showed an effect of 50% or more. The list shows a part of the results.
# Test system: Plasmodium falciparum
# Test: Primary screen in NF54 nanoGlo assay, in single point, at 2uM, 72h; a lower Z score goes with more inhibition
# Type: functional, Erythrocyte
# Conditions: timepoint 72 hour
Compound,% Inhibition [%],Z score
CC(=O)Nc1cc(Cl)c(Cl)cc1F,-12,1.87
O=C(NCCCN1CCCC1=O)C(=O)NCc1ccc(F)cc1,-10,1.48
Cc1ccccc1[C@H]1CN(C(=O)CCc2c(C)nn(C)c2C)C[C@@H]1C(=O)O,-21,2.21
Cc1cccc(NC(=O)CC(=O)NCCN2CCC[C@H](CO)C2)c1,18,-2.33
CC(C)Cn1nc2n(c1=O)[C@H](C(=O)NCCc1ccncc1)CCCC2,-2,0.22
CN(CCc1ccccc1)[C@H]1CCCN(Cc2ccc(C#CC(C)(C)O)s2)C1,-6,0.75
CCC1(CNS(=O)(=O)c2c(C(F)F)c(C)nn2C)CC1,2,-0.3
O=C1CCN(CC(=O)N[C@H](c2ccccc2)C2CCCCC2)CCN1,-9,0.95
O=C(c1cc(=O)[nH]c2ccccc12)N1CCC(c2nccn2CC2CCC2)CC1,3,-0.49
CN(c1nccc(C(F)(F)F)n1)[C@H]1CCCN(C(=O)CCn2ccnc2)C1,5,-0.79
CC(C)c1ccc([C@H](C)NC(=O)N2CCc3n[nH]cc3C2)cc1,-10,1.3
Cc1ccsc1[C@H]1CCN(Cc2ccccc2Cn2cccn2)C[C@@H]1O,0,-0.03
Cc1cc(C)nc([C@@H](C#N)C(=O)Nc2ccccc2)n1,3,-0.29
CC(=O)N[C@@H]1C[C@H](Cc2ccccc2)O[C@H](/C=C/c2ccccc2)C1,-2,0.27
Cc1ccccc1OCCc1ncnn1C(C)(C)C,-7,0.74
CCOC(=O)n1ccc(C(=O)Nc2cc(C)ccn2)n1,-1,0.17
COCC[C@H]1CCCCN1C(=O)Nc1ccc(-n2ccnc2)c(Cl)c1,-1,0.15
CC1(C)CN(C(=O)c2ccc(C#N)s2)CCN1,-10,1.28
COc1cc(F)c(CN(Cc2cnn(C)c2)C2CC2)cc1OC,0,0.05
O=C(Cn1c(=O)n(C2CC2)c(=O)c2snc(-c3ccccn3)c21)NCc1ccccc1,36,-4.61
Cc1cccc(C)c1Oc1ncccc1CNC(=O)[C@H]1CCNC1,2,-0.34

Compound,% Inhibition [%],Z score
O=C(Nc1cccc2cccnc12)c1ccc2c(c1)OCCO2,1,-0.14
COc1nc2c(cc1CNC(=O)[C@@H]1CCCCO1)C(=O)N(C1CCCC1)C2,-8,1.17
CC(C)c1noc([C@H]2CCCN(C(=O)c3[nH]nc4c3CCC4)C2)n1,4,-0.62
CCCN1C(=O)N[C@@H](CC(=O)N2CCC(OCC)CC2)C1=O,-1,0.18
Nc1ncccc1CNC(=O)COC[C@H]1CCCO1,-13,2.16
CCNc1ccc(S(N)(=O)=O)cc1C(F)(F)F,-16,1.37
CCN1CCN(c2nc(O)c3c(n2)NC(=O)C[C@H]3c2ccc(O)c(OC)c2)CC1,-13,1.92
CC1CN(Cc2cn(C(C)(C)C)nn2)CCC1O (stereo unspecified),2,-0.25
Cc1nsc(NC[C@H](O)COc2cccc(C(F)(F)F)c2)n1,-2,0.19
COc1cccc2nc(C[C@H]3CN(S(=O)(=O)c4ccccc4)CC[C@H]3CC(=O)O)[nH]c12,-10,1.62
Cn1c2c(c(C#N)c1NC(=O)CN1CCCCCC1)CCCC2,-12,1.47
C[C@H](NC(=O)Nc1ccc(-n2cnnn2)cc1)c1cnn(C)c1,-12,1.35
Nc1cccc(C(=O)N2CCCC[C@@H]2CCc2ccccc2)n1,-5,0.73
COc1ccc(-c2csc3ncnc(NC[C@](C)(O)c4cnn(C)c4)c23)cc1,-15,1.72
COc1nccnc1N1CCC2(CC1)CC(=O)N(C/C=C/c1ccccc1)C2,-12,1.25
Cc1c(CN2CCN(C)C3(CCN(C)CC3)C2)[nH]c2ccc(F)cc12,13,-2.47
CN(Cc1ccccc1)C(=O)CN(c1ccc(OCc2ccccc2)cc1)S(C)(=O)=O,-35,4.09
CCc1nnc(CN(C)Cc2cc(CN3CCN(C)CC3)c(C)cc2C)o1,-10,1.74
O=C1CN(CCCNC(=O)c2cccc(-c3ccc4occc4c3)c2)CCN1,-9,1.27
CCc1cc(C(=O)N2CCC(C)CC2)c2c(C3CC3)nn(-c3ccc(F)cc3)c2n1,34,-4.51
O=c1nc(CNc2ccccc2)[nH]n1Cc1nnnn1-c1ccccc1,7,-0.84

Compound,% Inhibition [%],Z score
O=C(NCCc1cccs1)c1nnn2c1CO[C@H](c1ccccc1)C2,6,-1.18
CCN(CC)S(=O)(=O)NCc1ccco1,-10,1.24
CC[C@@H](CO)Nc1ncc2cc3ccccc3nc2c1C#N,36,-4.67
Cc1ccc(C(=O)N2CCC[C@@H]2COc2ccc(C(=O)N3CCOCC3)cc2)c(C)c1,-3,0.56
Cc1cc(=O)c(C(=O)N2CCN(C/C=C/c3ccccc3)CC2)c(Cc2ccccc2F)n1C,1,-0.13
CS(=O)(=O)N1CCN(CCNC(=O)c2ccc(Br)o2)CC1,-5,0.91
O=C(CNC(=O)c1ccc(=O)[nH]c1)NCC1CCCCC1,-23,3.32
Cc1nc(C(=O)N2CCC[C@@]3(CCC(=O)N(Cc4ccncc4)C3)C2)cs1,-1,0.14
COc1ccc(C(=O)N[C@H]2CCN(c3cc(-c4ccc(Cl)cc4)n[nH]3)C2)c(C)c1,-20,2
O=C(c1cc(C(=O)N2CCC(=O)N3CCC[C@@H]32)c[nH]1)N1CCCC1,7,-0.85
C[C@H](O)c1cccc(N(C)Cc2cnn(-c3ccccc3)c2)n1,-13,1.64
O=C(c1ccc2nonc2c1)N1CCN(c2ccc3[nH]ncc3c2)C(=O)C1,-4,0.37
CC(C)CC(=O)NCc1nccc(N(C)C)n1,-3,0.49
Cc1cc(C)nc(Nc2nc(C(=O)NCCc3c[nH]c4ccccc34)cs2)n1,-16,2.99
Cc1ccc(-c2nc(CN(Cc3ccccc3)CC3CC3)c(C)o2)o1,-13,1.87
Cc1ccc(N2C(=O)N(CC(=O)OC(C)(C)C)S(=O)(=O)c3cccnc32)cc1F,-7,1.12
O=C(c1ccc(-n2cnnn2)cc1)N1CCOCC1,-2,0.35
O=C(Nc1ccc2c(c1)OCO2)c1ccc2ncsc2c1,-2,0.13
CC[C@@H](c1cccnc1)N(C)C(=O)c1ccc(-c2nc(C)c(C)cc2C#N)cc1,-8,1.39
CC(C)CN(Cc1cc(-c2cccs2)on1)C(=O)C(C)C,-10,1.34
NCc1ccc(COCc2ccccc2)cc1,-6,0.87

Compound,% Inhibition [%],Z score
CC(=O)N1CCOC[C@H]1C(=O)N1CCC(c2nc3cc(Cl)ccc3s2)CC1,-13,1.61
O=C(Nc1ccc(NCc2ccccc2)c(Cl)c1)[C@H]1CCS(=O)(=O)C1,-3,0.32
CC(=O)N[C@H]1C[C@@H](CCc2ccccc2)O[C@@H](CC(C)C)C1,-9,1.01
O=S(=O)(NCCCN1CCN(CCCNS(=O)(=O)c2ccc(Cl)cc2)CC1)c1ccc(Cl)cc1,31,-3.53
COCC[C@]1(NC(=O)c2ccc(F)cc2)CCN(C(=O)c2ccncc2)C1,1,-0.17
CC12CCC(C(=O)N3CCN(C(=O)C45CCC(C)(C(=O)C4)C5(C)C)CC3)(CC1=O)C2(C)C,-6,0.77
Cc1c(OCC(=O)Nc2ccc3c(c2)OCO3)c(=O)ccn1CCO,-3,0.38
Cc1cccc(C)c1NC(=O)C(=O)NCCc1nccn1C(F)F,1,-0.08
CN(C)CCN(C(=O)[C@H]1CC1(Cl)Cl)c1ccc(Br)cn1,0,0.04
CCC(=O)Nc1ccc(-n2nc(OCCc3ccc(OC)cc3)nc2-c2ccccc2F)cc1,-25,2.23
CN(Cc1csc(-c2ccccc2)n1)c1nc(CO)cs1,-3,0.38
CC[C@H](C)NC(=O)N1CCc2c(c(-c3nc(Cc4ccccc4)no3)nn2C)C1,-2,0.36
CC(C)n1ncc(NC(=O)NC[C@@H](CO)C2CC2)c1C1CC1,-3,0.26
O=C(NCCn1ncccc1=O)c1c[nH]c(=O)n(Cc2ccccc2Cl)c1=O,-17,2.88
COc1ccc(C(=O)N2CCC(c3nccn3CC3CCC3)CC2)c(F)c1F,-19,2.74
O=C(Nc1cccnc1)Nc1cccnc1,-4,0.54
CCCc1cc(C(=O)N2CCC3(CC2)C(=O)NC(=O)N3CC)n(C)n1,-12,1.13
COc1cc(CNC2CCCCCCC2)cc(Cl)c1OCC(N)=O,-4,0.43
Cc1ccccc1-n1nc(CN2CCOCC2)c(-c2ccccc2)c1N,-7,0.8
COCCN1CC[C@H](C(=O)Nc2ccnn2C2CCCC2)C1,-13,2.41
